Data published in the supplement of paper PMC11417369.
± gives the standard deviation of the averaged measurements. Some of the results follow.

What follows are sequences tested on PfAP2-G AP2 domain (GST-tagged) (assay: gcPBM binding intensity (ln(normalized median fluorescence intensity)); higher = stronger DNA binding).
How it was run: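 GST-tagged P. falciparum DNA-binding domains, expressed in E. coli (about 25 μg on average), were applied for 1 h to an Agilent 4 × 180k array of primer-extended double-stranded 36-bp intergenic genomic probes plus negative controls. The binding buffer was 1× PBS with 1% milk, 0.2 mg/ml BSA, 0.5% salmon testes DNA and 0.03% Triton X-100. Bound protein was detected with Alexa488 anti-GST antibody and scanned at 488 nm. Binding intensity is the highest Masliner-normalised natural-log median intensity across replicate spots of either probe orientation.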

Going from “TATACATTATCTTATGCATGCGCATCTGCATATAAA [TGCATGCA_site266]” to “TTTATTTATTATTAAAGTACTAAATCATATTATTAT [XGTACX_site992]”, the “gcPBM binding intensity (ln)” value rises from 9.96 ± 0.085 to 10.8 ± 0.6.

“CTCATCCTTACATACACACACATATATATATATATA [CACACA_site103]” and “ATATTTAAATCGAAGGTGCGTATTTCCTTTTTTTTT [GTGCAC_site9632]” are within error of each other in “gcPBM binding intensity (ln)” value: 10.3 ± 0.41 for the first, 10.2 ± 0.15 for the second.

“ATTCATTTCTATTTTACACACAATAAGTAACTTAAT [CACACA_site2850]” and “AGTATAAATAAATCATAAACATATATATATATATAT [GTGCAC_negctrl_site356]” are within error of each other in “gcPBM binding intensity (ln)” value: 10.19 ± 0.099 for the first, 9.94 ± 0.39 for the second.

First: ATATATACATATAACACACACATATATATATATATA [CACACA_site2575]
Second: AATTGATTTATATATTGTACATATAAATTTATGTAT [XGTACX_site7785]
The “gcPBM binding intensity (ln)” value of the first is lower: 9.99 ± 0.23 for the first, 11 ± 0.58 for the second.

Compared with “ATTCACTAAAAAATTGCATGCAATAAATTTTTTTTT [TGCATGCA_site962]”, “TTTTATTGTTGTTATACACACCATATAAAATATTTC [CACACA_site4983]” is higher in “gcPBM binding intensity (ln)” value: 9.63 ± 0.17 for the first, 10.2 ± 0.16 for the second.

Going from “TCTTGGTTATTAAAAAAAAAAAAATATATTTTTCCT [TGCATGCA_negctrl_site445]” to “ATATTTATCTTTTTATGTACATATGCCCCTTTTCTG [XGTACX_site673]”, the “gcPBM binding intensity (ln)” value rises from 9.78 ± 0.028 to 11.2 ± 0.66.

“AAGAAAATTAAATTAACACACATAAATATATATATA [CACACA_site1664]” and “GAGTTATTTCTTATTTAAGCATTCTACATATATATA [CACACA_negctrl_site239]” are within error of each other in “gcPBM binding intensity (ln)” value: 9.85 ± 0.28 for the first, 9.97 ± 0.13 for the second.

“ATTTTACATATTTGCACACATATATTTAAATACATA [CACACA_site4627]” and “CTCAACGATAGAGAAACATGCAAGTATAAGCAACTA [TGCATGCA_site771]” are within error of each other in “gcPBM binding intensity (ln)” value: 9.975 ± 0.035 for the first, 9.845 ± 0.092 for the second.

First: GGGAAAATAAATAAAGTGCAGATATTAAAAGTTGTA
Second: TTGCATATTTCTAATTGTACATTATTTTATTTTATA [XGTACX_site8451]
The “gcPBM binding intensity (ln)” value of the first is lower: 10.16 ± 0.014 for the first, 10.9 ± 0.54 for the second.

“AATAAAAAATATATGAGTACTAAATTGTTTTCTTAA [XGTACX_site8573]” and “TGTTAATTAAAGGACTGTACACTAATAATTCTATAA [XGTACX_site5195]” are within error of each other in “gcPBM binding intensity (ln)” value: 11.2 ± 0.64 for the first, 11.5 ± 0.82 for the second.

Going from “GTTCTAATATATTGCACACGTAAAAATATAGGTAAT [CACACA_site886]” to “AAATATGTACATATTATATATATATAATATATATTG [TGCATGCA_negctrl_site438]”, the “gcPBM binding intensity (ln)” value rises from 10.3 ± 0.17 to 11.5 ± 1.

Going from “TCATATGTTTCATGTTGTACATTGAAAGTTTGGCTA [XGTACX_site3202]” to “AAGAAAAAAATTTATACAAGAATTTTTTATTATTAA [TGCATGCA_negctrl_site587]”, the “gcPBM binding intensity (ln)” value falls from 11 ± 0.6 to 9.65 ± 0.071.

Going from “AATAAATATAGATTCACACACAAACATATATAAATA [CACACA_site7814]” to “AAAAAAAAAATATATATATATATATATATATAATTT [GTGCAC_negctrl_site32]”, the “gcPBM binding intensity (ln)” value falls from 9.935 ± 0.049 to 9.32 ± 0.16.

“ATAAATAAATGGTGTTGTACTCTATTATATATATAT [XGTACX_site7835]” and “TAATTGTACGCCAATACACACAGAATTAGAATGTAG [CACACA_site102]” are within error of each other in “gcPBM binding intensity (ln)” value: 11.3 ± 0.75 for the first, 11.8 ± 1.3 for the second.

First: TACACAAGCGGACACACACACATATATATATATATA [CACACA_site4832]
Second: AACATTCTAAAACACACACACACATATATATATATA [CACACA_site1052]
The “gcPBM binding intensity (ln)” value of the first is higher: 11.3 ± 0.96 for the first, 10.1 ± 0.23 for the second.

“TATATATAAAAAAGCACACATACATACATACATAAT [CACACA_site890]” and “TTTTCACTTTTAAAAACATGCATACTTTATAAAATA [TGCATGCA_site967]” are within error of each other in “gcPBM binding intensity (ln)” value: 10.26 ± 0.099 for the first, 10.1 ± 0.29 for the second.

Going from “TGTAAATTTGGCATCACACATAAATAAACATATAAA [CACACA_site4497]” to “TATTAACATATATAAAGTACATTAAACAACATTGTA [XGTACX_site7667]”, the “gcPBM binding intensity (ln)” value rises from 10.1 ± 0.057 to 11.1 ± 0.73.

Going from “AAAAAAAAAAAACACACACACACATAAATATATATA [CACACA_site149]” to “GTGAAAAAAAACATATGTACTTATACACTAATCTAT [XGTACX_site7600]”, the “gcPBM binding intensity (ln)” value rises from 9.85 ± 0.2 to 11.2 ± 0.75.

“TTATATATAATTACATGTACGTAGTATTATTTAAAT [XGTACX_site3418]” and “TTATCATTTTAATGGTGTACTCAATAAAAACTTTAA [XGTACX_site4595]” are within error of each other in “gcPBM binding intensity (ln)” value: 11.3 ± 0.93 for the first, 11.5 ± 1.1 for the second.

Compared with “AAAAGAAATATTTATACACACACACTAACATATATA [CACACA_site8580]”, “CTATATTCGTTTAATAGTACATATATAACTAGACAA [XGTACX_site5770]” is higher in “gcPBM binding intensity (ln)” value: 10.09 ± 0.035 for the first, 11.1 ± 0.75 for the second.

“GTTGGTACCTTACTTTTACACACTTTTTTTTTTTTT [CACACA_site8441]” and “TATATATATATGTATACACACATACAAATATGTAAA [CACACA_site9238]” are within error of each other in “gcPBM binding intensity (ln)” value: 11.1 ± 0.42 for the first, 10.1 ± 0.6 for the second.

“TGGTAAAGGAGCAAGATGATAAATCTCCATAACTTT [CACACA_negctrl_site492]” and “ATGTCTATAATAAGAACACACATATATTTAATTTAA [CACACA_site7394]” are within error of each other in “gcPBM binding intensity (ln)” value: 9.7 ± 0.13 for the first, 9.83 ± 0.014 for the second.
